# Results taken from PubChem BioAssay AID485344 (National Center for Advancing Translational Sciences (NCATS), 2010).
# Several values for one entry are separate records, joined by “and”; a condition that tells them apart may be missing. Equal values may be shown once. Out of some 340,000 compounds screened, about 6,900 (2%) were called active. No stated cut-off is given here; in the data, active means inhibition above about 30%; inactive means below that, where a call was filed. Only a part is listed here, and it is no random draw. Entries without a call were filed so in the source.
# Target: D(2) dopamine receptor (Homo sapiens) (UniProt P14416)
# Chain of UniProt P14416 (P14416 whole entry, looked up): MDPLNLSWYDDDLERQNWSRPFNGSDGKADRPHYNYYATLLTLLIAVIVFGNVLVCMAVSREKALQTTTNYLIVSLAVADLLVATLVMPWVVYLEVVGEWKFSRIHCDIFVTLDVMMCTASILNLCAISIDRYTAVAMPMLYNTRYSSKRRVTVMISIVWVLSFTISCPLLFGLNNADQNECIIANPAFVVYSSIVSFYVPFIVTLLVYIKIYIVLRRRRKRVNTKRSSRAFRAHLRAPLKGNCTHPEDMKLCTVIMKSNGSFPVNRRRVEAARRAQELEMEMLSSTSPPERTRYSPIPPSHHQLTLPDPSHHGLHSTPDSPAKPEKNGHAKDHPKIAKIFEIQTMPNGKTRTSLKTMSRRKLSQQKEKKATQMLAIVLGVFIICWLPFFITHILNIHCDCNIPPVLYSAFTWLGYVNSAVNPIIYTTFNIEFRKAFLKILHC
# Assay: HTS Assay for Allosteric Antagonists of the Human D2 Dopamine Receptor: Primary Screen for Antagonists; further: 0% is about no effect
# Settings: HEK293 TREx D2 cells, calcium flux, dopamine EC80; at 10 µM; stronger effect = higher value
# Procedure, shortened: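 Cells plated overnight at 30 C with tetracycline; no-wash calcium dye, 30–90 min RT; 10 s baseline; compound pinned; 180 s read; EC80 dopamine added; another 180 s read.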
row,SMILES,inhibition
1,Cc1ccccc1Cn1c(COc2ccc(Cl)cc2)nc2ccccc21,-0.147%
2,Cc1nc2ccc(S(=O)(=O)N(C)CC(=O)Nc3ccc(C(C)C)cc3)cc2s1,2.75%
3,Cc1cccc(C2CN(C)CCc3c2cc(O)c(O)c3Cl)c1 (configuration not stated),active: 79.2%
4,COc1ccc(CNC(=O)C2CCN(c3nnc(-n4c(C)ccc4C)s3)CC2)c(OC)c1,-0.944%
5,O=C(Nc1cccc(F)c1)C1CCCN(S(=O)(=O)c2cccc3cccnc23)C1 (configuration not stated),-24.7%
6,COc1ccc(N(CC(=O)Nc2cc(C)cc(C)c2)S(=O)(=O)c2ccccc2[N+](=O)[O-])c(OC)c1,active: 53.4%
7,COc1ccc(CNS(=O)(=O)c2cc3c(cc2Cl)N(C(C)=O)CCO3)cc1,-0.275%
8,COc1cc(NC(=O)CN2CCN(S(=O)(=O)c3ccc(Br)cc3)CC2)cc(OC)c1,-12.1%
9,Cc1ccc(Nc2cc(C(=O)NCCc3ccccc3)c3ccccc3n2)c(C)c1,9.27%
10,COCCSc1ccccc1C(=O)NCCCn1ccnc1,active: 38.8%
11,COc1ccc(NC(=O)CSc2nc(-c3cc(OC)c(OC)c(OC)c3)[nH]c2-c2ccc(F)cc2)cc1,18.8%
12,CCC1CN(C(=O)N2CCC(C(=O)N3CCN(c4ccccc4F)CC3)CC2)c2ccccc2O1 (configuration not stated),16.4%
13,CCC(Sc1nc2ncccc2o1)C(=O)Nc1ccc(OC)c(OC)c1 (configuration not stated),-1.59%
14,COc1ccc(C2CC(=O)c3cc(-c4nc(-c5cccc(Cl)c5)cs4)c(=O)[nH]c3C2)cc1 (configuration not stated),-1%
15,CC(C)Cc1ccc(C(C)C(=O)Nc2ccc(O)cc2)cc1 (configuration not stated),active: 38.8%
16,CSc1oc(-c2cccs2)nc1S(=O)(=O)c1ccc(Br)cc1,-14.9%
17,O=S(=O)(c1ccc(Cl)cc1Cl)n1ccnc1,-4.82%
18,CCOc1ccccc1N(C)C(=O)c1c2c(nc3ccccc13)C(=O)N(C1CCCCC1)C2,12.8%
19,Cc1ccc(C)c(Cn2c3ccccc3c3cnn(CC(=O)NCCc4ccccc4)c(=O)c32)c1,16.8%
20,Cc1ccc2c(c1)c1c3n2CCN(C(=O)c2cccc(C(F)(F)F)c2)C3CCC1 (configuration not stated),20%
21,CCc1cccc(C)c1Nc1c(-c2ccsc2)nc2ncccn12,6.83%
22,COc1ccc(N2CCN(Cc3nnc(-c4ccc5c(c4)OCO5)o3)CC2)cc1,-12.3%
23,Cc1ccc(-n2nc(C)c3nc(CCC(=O)Nc4cccc(F)c4)c(=O)n(C)c32)cc1,3.2%
24,Clc1ccc(-c2noc(-c3cccnc3NCc3ccco3)n2)cc1,26.5%
25,COc1ccc(CNC(=O)C2CCCN(c3nnc(C)c4c(C)n(-c5ccc(C)cc5)nc34)C2)cc1 (configuration not stated),-18.4%

row,SMILES,inhibition
1,CCOc1c(Cl)cc(C(=O)N(Cc2ccc(N(C)C)cc2)Cc2ccco2)cc1Cl,1.31%
2,COc1ccccc1CNC(=O)CCNS(=O)(=O)c1ccc2c(c1)oc(=O)n2C,-3.08% and active: 67%
3,CNC(=O)c1ccc2c(c1)N(Cc1ccccc1Cl)C(=O)c1ccccc1S2,-9.87%
4,O=C(Cn1c(=O)nc(-c2ccccc2F)c2cc(Cl)ccc21)NCCCc1ccccc1,-11.5%
5,Cn1c2ccccc2c2cnn(CC(=O)Nc3ccccc3F)c(=O)c21,4.85%
6,CC(C)CCn1c(=O)c2cccnc2n(CC(=O)Nc2ccccc2F)c1=O,-2.45%
7,Cc1cc(C)cc(NC(=O)c2c(C)oc3nc(C)nc(N4CCCC4)c23)c1,4.62%
8,CCc1ccc(OCC(=O)Nc2ncn[nH]2)c(Br)c1,19.6%
9,CCOc1ccc(Nc2nn(-c3ccc(OC(F)(F)F)cc3)nc2C(C)=O)cc1,-7.04%
10,COc1cccc(Cn2c(-c3nonc3NC(C)=O)nc3ccccc32)c1,19%
11,COc1cccc(-c2noc(-c3cc(C(C)C)[nH]n3)n2)c1OC,9.62%
12,CCOc1ccc(NC(=O)CCc2c(C)nc3c(-c4ccccc4)c(C)nn3c2C)cc1,13.7%
13,COC(=O)c1ccc(Cn2c(SCc3ccc(F)cc3)nc3ccncc32)cc1,12.2%
14,O=c1ccc2cc(S(=O)(=O)Nc3ccc(OC(F)(F)F)cc3)ccc2[nH]1,-12.8%
15,Cc1ccc(CNC(=O)CSC2=Nc3ccccc3N=C(c3ccc(F)cc3)C2)cc1,0.835%
16,Cc1c(C)n(O)c2ccc3nonc3c12,active: 41.1%
17,CCOC(=O)N1CCN(CC(=O)Nc2ccc(Oc3ccccc3)cc2)CC1,active: 43.3%
18,COCCCN1C(=O)c2oc3ccccc3c(=O)c2C12C(=O)N(C)c1ccccc12 (configuration not stated),-1.6%
19,COc1ccc(CC(=O)N2CCc3cc(OC)c(OC)cc3C2COc2ccc3c(C)cc(=O)oc3c2)cc1OC (configuration not stated),17.3%
20,Cc1ccc(S(=O)(=O)c2nc(-c3ccccc3F)oc2NCc2ccccc2)cc1,16.7%
21,Cc1nc(N2CCOCC2)c2c(C(=O)N3CCN(c4ccccc4)CC3)c(C)oc2n1,3.8%
22,CCOC(=O)c1cccc(NC(=O)NC(C)c2c(-n3cccc3)sc3c2CCN(C)C3)c1 (configuration not stated),-6.04%
23,Cc1cc2c(cc3c(SCC(=O)Nc4ccc(Cl)cc4F)nncn32)o1,-11.9%
24,CN(C)c1nc2n(c(=O)n1)C(C#N)CS2 (configuration not stated),active: 33.5%
25,Cc1c(C(=O)NCc2ccccc2CN2CCCC2)oc2ccc(F)cc12,active: 58.4%

row,SMILES,inhibition
1,COc1ccc(CNC(=O)c2ccc(NC(=O)N3CCSc4ncccc43)cc2)cc1,5.75%
2,Cc1ccccc1C(=O)N1CCC(C(=O)Nc2ccc(F)cc2F)CC1,-1.25%
3,Cc1cccc(S(=O)(=O)c2cn(C)c3cc(N4CCN(c5ccccc5)CC4)c(F)cc3c2=O)c1,-14.2%
4,Cc1ccc(Cn2c(C)c3cnn(CC(=O)NCCc4ccc(Cl)cc4)c(=O)c3c2C)cc1,-5.81%
5,COc1ccc(/C=N/N2C(=O)CSC2=S)cc1Br,active: 33.3%
6,CCN1CCN(c2ccc(S(=O)(=O)N3CCOCC3)cc2NC(=O)CCOc2ccccc2)CC1,active: 31.8%
7,COc1cccc(CCNC(=O)c2cnc3sc(N4CCOCC4)nn3c2=O)c1,-6.98%
8,COc1ccc(C(C(=O)NC(C)(C)C)N(CCc2ccc(OC)c(OC)c2)C(=O)CCC(=O)Nc2cc(C)on2)cc1 (configuration not stated),active: 34.5%
9,CCOc1ccc(C(=O)Nc2ccc(-n3nncc3-c3ccc(OC)cc3)cc2)cc1,-7.6%
10,COc1ccccc1NC(=O)C1=C(C)Nc2nc(-c3ccco3)nn2C1c1ccccc1F (configuration not stated),22.6%
11,CN(C)S(=O)(=O)c1ccc(N2CCCC2)c(C(=O)NNC(=O)COc2ccccc2F)c1,active: 57%
12,Cn1nnnc1SCCNCc1ccc(Cl)c(Cl)c1,-4.93%
13,S=C(Nc1cccc(Cl)c1Cl)NC1CCN(Cc2ccccc2)CC1,active: 71.1%
14,CCCc1cc(=O)[nH]c(Nc2ccc(OCC)cc2)n1,1.23%
15,O=C(CSc1nc(-c2ccccc2)nc2cc(=O)[nH]n12)Nc1ccccc1,7.96%
16,CCc1nc(-c2ccc(C)c(S(=O)(=O)N3CCN(c4ccc(C(C)=O)cc4)CC3)c2)no1,-7.17%
17,Cc1ccccc1C(=O)N1c2ncnn2C2(CCCCC2)[C@@H]2CCCC[C@@H]21,12.5%
18,CC(C)Nc1nc2c(-c3cccc(Br)c3)nnn2c2ccccc12,4.2%
19,COC(=O)C1=C(C)N(C(C)C)C(=O)C1(NC(=O)c1ccc(C(C)(C)C)cc1)C(F)(F)F (configuration not stated),-6.33%
20,Cc1ccccc1Cn1c(=O)n(CCC(=O)NCc2ccco2)c(=O)c2sccc21,4.21%
21,O=C(NCCn1cc(SCc2ccc(F)cc2)c2ccccc21)c1cccs1,-11%
22,CCc1ccc(NC(=O)Cn2cc(S(=O)(=O)c3ccc(F)cc3)c(=O)c3cc(OC)ccc32)cc1,-13.9%
23,COc1ccc(NC(=O)C2CCC(CNS(=O)(=O)c3ccc(Br)s3)CC2)c(OC)c1 (configuration not stated),-0.604%
24,COc1cc(NC(=O)N2CCC(CN3CCCCCC3)CC2)cc(OC)c1OC,6.57%
25,CCCOc1ccc(CNC(=O)c2ccc3c(c2)N(CC)CCS3)cc1,active: 50.2%

row,SMILES,inhibition
1,COc1cc(CNCCSc2nnnn2C)ccc1OCc1ccc(Cl)cc1Cl,-2.54%
2,Cc1ccc(NC(=O)Cn2nc3c(cc2=O)CCCC3)cc1Cl,-12.4%
3,CCN(C(=O)CSc1nc2ccccc2nc1Cc1ccc(F)cc1)c1cccc(C)c1,10.1%
4,CC(Oc1ccc(F)cc1)C(=O)Nc1cc(S(=O)(=O)N2CCCCC2)ccc1N1CCOCC1 (configuration not stated),active: 37.3%
5,Cc1nc(-n2nc(C)c(CCC(C)C)c2C)sc1C(=O)Nc1cccc(Cl)c1,-16.4%
6,CC(C)CN(C(=O)Cn1nnc(-c2ccc(F)cc2)n1)C1CCS(=O)(=O)C1 (configuration not stated),active: 55.3%
7,Cc1cccc(C)c1NC(=O)c1sc(-n2nc(C)c(Cc3ccc4c(c3)OCO4)c2C)nc1C,9.91%
8,Clc1ccc(NCc2nc3ccccc3n2CCOc2ccccc2)cc1,3.4%
9,c1cnc2c(C3NCCc4c3[nH]c3ccccc43)cccc2c1 (configuration not stated),active: 35.8%
10,CC(C)c1ccccc1NC(=S)N1CCN(Cc2ccc3c(c2)OCO3)CC1,active: 33.4%
11,COc1cccc(NC(=O)Cn2nc(C)c3c(C)n(-c4ccccc4)nc3c2=O)c1,10.5%
12,CCC(Sc1nnc(-c2ccc(OC)c(OC)c2)c(-c2ccc(OC)c(OC)c2)n1)C(=O)NC1CCCC1 (configuration not stated),14.4%
13,Cc1cccn2c(=O)cc(CSc3nnc(NC(=O)c4ccc(F)cc4)s3)nc12,12.1%
14,CCc1ccc(NC(=O)C(Cc2ccccc2)NS(=O)(=O)c2ccc3c(c2)c(=O)n(C)c(=O)n3C)cc1 (configuration not stated),9.65%
15,CCn1c(SCC(=O)Nc2ccc3c(c2)c2ccccc2n3CC)nnc1-c1ccco1,active: 45.5%
16,CCCOc1ccc(Oc2nc(NCC(C)C)nc(N(C)C)n2)nn1,12%
17,CNC(=O)c1cnc2sc(N3CCCCCC3)nn2c1=O,12.8%
18,Cc1ccc(NC(=O)CSc2nnc(-c3cnccn3)n2Cc2ccco2)cc1,active: 32%
19,CCOc1ccc(N(CC)C(=O)CCc2nc(-c3ccccc3F)no2)cc1,11.3%
20,O=C(Cc1ccccc1)N/N=C/c1ccccc1Cl,active: 31.2%
21,Fc1ccc(NC(=S)NCCc2ccc(Cl)cc2)cc1,active: 31.7%
22,CN(C)CCCN1C(=O)CSC1c1ccc([N+](=O)[O-])cc1 (configuration not stated),active: 34%
